Hit rate of the full screen: of about 150,000 compounds, about 540 (0.36%) showed an effect of 50% or more. This is one part of the list.

The text below walks through data of ChEMBL document CHEMBL4888484, “Replenishing the malaria drug discovery pipeline: Screening and hit evaluation of the MMV Hit Generation Library 1 (HGL1) against asexual blood stage Plasmodium falciparum ,using a nano luciferase reporter read-out” (2022).

The assay has as its system Plasmodium falciparum. Description: Primary screen in NF54 nanoGlo assay, in single point, at 2uM, 72h; a lower Z score goes with more inhibition. Conditions: timepoint 72 hour. The class given is functional, Erythrocyte.
The % Inhibition is the drop in the measured response relative to a control, in per cent. As for `CCc1cnc(NC(=O)CCOCC(F)(F)F)s1`, the “% Inhibition” value is -5% and the Z score is recorded as 0.9.

`Cc1csc([C@@H](C#N)C(=O)c2cnc(Oc3ccccc3)cn2)n1`: the “% Inhibition” value was -15% and the Z score is given as 1.51.

As for `O=S(=O)(NCc1ccc(N2CCCC2)cc1)c1ccc(Cl)cc1`, the “% Inhibition” value is listed as -16% and the Z score is recorded as 1.48.

On to `C[C@H](Oc1ccc(Cl)c(Cl)c1)C(=O)NC(N)=O`, for which the “% Inhibition” value was -32% and the Z score is reported as 3.77.

Turning to `CCc1ccc(C(=O)NS(=O)(=O)N2CCN(Cc3ccccc3)CC2)o1`, the “% Inhibition” value is recorded as -9% and the Z score is recorded as 0.81.

For the compound `O=C(NCCc1ccco1)c1cc(N2CCOCC2)ncn1`, the “% Inhibition” value is given as -5% and the Z score came out at 1.

As to `CN(Cc1ccc(-n2cccn2)cc1)S(=O)(=O)N1CCC(C)(C)CC1`, the “% Inhibition” value is given as -8% and the Z score is reported as 1.55.

For `N#CC1(NC(=O)Cn2nnc3ccccc32)CCC1`, the “% Inhibition” value turned out to be 0% and the Z score is on record as -0.01.

`O=S(=O)(N[C@H]1CCN(c2nccs2)C1)c1ccccc1`: the “% Inhibition” value was -8% and the Z score worked out at 1.44.

Consider `Cc1cc(NC(=O)CCN2C[C@H](F)C[C@H]2C(N)=O)no1`, for which the “% Inhibition” value is recorded as -7% and the Z score is reported as 0.68.

For `CCCOc1ccc(-c2nc(C(=O)NCCc3ccccn3)cs2)c(Cl)c1`, the “% Inhibition” value worked out at 8% and the Z score was -1.16.

Take `Cc1ccccc1-c1nc2cc(NS(=O)(=O)c3ccccc3)ccc2o1`: the “% Inhibition” value came to 36% and the Z score was -0.71.

Turning to `CC(NC(=O)NC1CCN(CC2CCCC2)C1)C1CCCO1` (stereo not drawn), the “% Inhibition” value was -10% and the Z score turned out to be 1.94.

For `NC(=O)[C@@H]1CCCN1C(=O)c1cc2cc(Br)ccc2o1`, the “% Inhibition” value stood at 4% and the Z score is -0.55.

Consider `Cc1nc(-c2ccc(NS(=O)(=O)c3cnc(C4CC4)s3)cc2)co1`, for which the “% Inhibition” value was -4% and the Z score is reported as 0.51.

As for `O=C(COCC(F)(F)C(F)F)NCCn1cc(Cl)cn1`, the “% Inhibition” value was -6% and the Z score is 1.11.

`COc1cc(NC(=O)CCS(=O)(=O)c2ccc3c(c2)CC(=O)N3C)cc(OC)c1OC`: the “% Inhibition” value is given as -11% and the Z score came out at 1.4.

Turning to `COc1ccsc1C(=O)N[C@@H]1CCC(=O)N[C@H]1C(C)(C)C`, the “% Inhibition” value is given as -4% and the Z score is 0.61.

In the case of `COc1ccc2c(c1)CN(C(=O)Nc1ccnc(C(=O)N3CCN(C)CC3)c1)C2`, the “% Inhibition” value is given as 7% and the Z score was -0.87.

Regarding `COc1ccc([C@H](CNC(=O)c2cc(OC)c(OC)c(OC)c2)N2CCCCC2)cc1`, the “% Inhibition” value is on record as -9% and the Z score amounted to 1.16.

On to `Cc1ncsc1CNC(=O)N1CCC[C@H](CN2CCOCC2)C1`, for which the “% Inhibition” value was -11% and the Z score is 1.41.

`CCC=CCCNc1cn(C)nc1-c1cnn(C)c1`: the “% Inhibition” value was -17% and the Z score was 2.27.

Consider `Cc1nn(C(C)C)c(C)c1CN(C)c1cc(C#N)ccn1`, for which the “% Inhibition” value was -14% and the Z score was 2.16.

Turning to `C[C@@H](CN(C)Cc1cc(CN(C)C)cs1)N1CCOCC1`, the “% Inhibition” value is given as -4% and the Z score was found to be 0.73.

For `CCc1nc(C)ccc1OCc1nsc(N(C)C)n1`, the “% Inhibition” value is recorded as -1% and the Z score was determined as 0.18.

In the case of `CC1CC(C)CN(C(=O)CN2CCCC2c2cccs2)C1` (stereo not drawn), the “% Inhibition” value is reported as -7% and the Z score was 0.87.

For `N#Cc1cc(N)c(N)c(Br)c1`, the “% Inhibition” value is -41% and the Z score is 4.84.

As for `Cc1ccc(NC(=O)C2CCN(S(=O)(=O)c3c(C)[nH]c(C)c3C(=O)N3CCCC3)CC2)cc1`, the “% Inhibition” value was -8% and the Z score is 0.78.

Turning to `O=C(CC1=CCCC1)N[C@H]1C[C@H](c2cc(N3CCOCC3)ncn2)C1`, the “% Inhibition” value is on record as -9% and the Z score was 1.64.

Turning to `CC(C)(NS(C)(=O)=O)c1noc(-c2cncc(F)c2)n1`, the “% Inhibition” value is -3% and the Z score came to 0.42.

With `Cc1cc(C(=O)NCc2noc(C)n2)[nH]n1`, the “% Inhibition” value was -9% and the Z score was 1.44.

In the case of `O=C(c1nc2ccccc2s1)N1CC[C@H](c2ccc3c(c2)OCO3)C1`, the “% Inhibition” value stood at 0% and the Z score is reported as 0.05.

Regarding `C[C@H]1CCCN(CCCNC(=O)c2ccc(N3CCCCS3(=O)=O)cc2)C1`, the “% Inhibition” value is on record as -13% and the Z score worked out at 1.78.

For the compound `CC(C)Oc1cccc(CC(=O)N2CC[C@H](CO)C[C@@H]2C)c1`, the “% Inhibition” value is recorded as -2% and the Z score is given as 0.25.

Regarding `c1ccc2ncc(-c3cncnc3)cc2c1`, the “% Inhibition” value is listed as -4% and the Z score came out at 0.83.

On to `Cc1ccc2oc(-c3nc([C@H]4CCOC4)no3)cc2n1`, for which the “% Inhibition” value is on record as 15% and the Z score is given as -1.8.

As to `O=C(c1cnsn1)N1CCC(OCC2CCCC2)CC1`, the “% Inhibition” value is on record as -2% and the Z score amounted to 0.47.

Regarding `O=C(C[C@H]1CCOC1)NCc1cscn1`, the “% Inhibition” value came out at 5% and the Z score is recorded as -0.77.

For the compound `O=C(O)CC1CN(C(=O)C2CC2c2ccccc2OC(F)(F)F)CCO1` (stereo not drawn), the “% Inhibition” value was found to be 2% and the Z score is given as -0.22.

Take `COc1ccc(CCNS(=O)(=O)c2c3c(c(OC)c4c2OCO4)C(=O)N(C)CC3)cc1OC`: the “% Inhibition” value is recorded as -10% and the Z score was 1.26.

In the case of `CN(CCCNC(=O)c1nccnc1-c1nc2ccccc2s1)Cc1ccccc1`, the “% Inhibition” value is reported as -10% and the Z score is 1.15.

With `Cc1cc(C(=O)N2CCC[C@H](c3nccn3CC3CC3)C2)nc(C)n1`, the “% Inhibition” value was 1% and the Z score is listed as -0.15.

In the case of `CC1=C(CCN2CCOC[C@@H]2CC(=O)N2CCCOCC2)C(C)(C)CCC1`, the “% Inhibition” value is 2% and the Z score is recorded as -0.3.

Consider `CN(CC(=O)OCc1nnc(-c2ccccc2)o1)S(=O)(=O)c1cccnc1`, for which the “% Inhibition” value is -14% and the Z score stood at 2.17.
